From PMC5700166 come the findings set out here.

The list shows a part of the results, in another mix than the full data. The list includes weakly bound sequences.

This test has as its target T1, GST-Co-NF-kB (UniProt F1ARL5).
T1 sequence: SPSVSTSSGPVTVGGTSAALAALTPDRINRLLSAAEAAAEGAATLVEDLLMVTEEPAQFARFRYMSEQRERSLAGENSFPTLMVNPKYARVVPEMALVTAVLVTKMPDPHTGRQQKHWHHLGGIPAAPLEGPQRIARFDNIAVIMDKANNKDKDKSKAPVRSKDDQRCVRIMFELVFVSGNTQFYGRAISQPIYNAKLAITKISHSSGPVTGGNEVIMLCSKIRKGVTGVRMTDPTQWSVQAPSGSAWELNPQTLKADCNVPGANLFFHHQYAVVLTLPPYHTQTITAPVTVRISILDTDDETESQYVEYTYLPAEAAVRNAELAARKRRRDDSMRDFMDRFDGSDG
Nature of the test: protein-binding microarray (PBM). The conditions noted are these: PBM: ~300 nM protein, 6 mM HEPES pH 7.8, 80 mM KCl, 0.5 mM EDTA, 0.5 mM EGTA, 6% glycerol, 35 ng/ul poly-dIdC, 1% milk, 1 h, room temperature; Ap Aiptasia and Nv Nematostella (sea anemones) / Co Capsaspora / Aq Amphimedon (sponge) / Dm Drosophila / Hu human; RHD is the Rel homology domain; high values mean tight binding; most listed sequences are background and not binding sites; double strand, one strand shown.
On to “CCGATTAACATCACCGAACGCTTTGATGTTAATCGGGTCTTGATTCGCTTGACGCTGCTG”, for which the binding signal was -0.217 z-score.

In turn, “CCGATTAACATCAGTAGGTTCTTTGATGTTAATCGGGTCTTGATTCGCTTGACGCTGCTG” displayed a binding signal of 0.0923 z-score.

Sequence “CCGATTAACATCAACGCCCTGCCTGATGTTAATCGGGTCTTGATTCGCTTGACGCTGCTG” came in with a binding signal of 0.106 z-score.

Turning to “CCGATTAACATCATATGAGGACCTGATGTTAATCGGGTCTTGATTCGCTTGACGCTGCTG”, the binding signal stood at 0.258 z-score.

“CCGATTAACATCACTGTTCACTCTGATGTTAATCGGGTCTTGATTCGCTTGACGCTGCTG” returned a binding signal of -0.324 z-score.

“CCGATTAACATCATTAGCGTTACTGATGTTAATCGGGTCTTGATTCGCTTGACGCTGCTG” came in with a binding signal of -0.43 z-score.

With “CCGATTAACATCACGAAGCTTGATGATGTTAATCGGGTCTTGATTCGCTTGACGCTGCTG”, the binding signal is -0.674 z-score.

As to “CCGATTAACATCAGTTCTCCGGGTGATGTTAATCGGGTCTTGATTCGCTTGACGCTGCTG”, the binding signal came to 0.832 z-score.

Regarding “CCGATTAACATCACTAATCTTTTTGATGTTAATCGGGTCTTGATTCGCTTGACGCTGCTG”, the binding signal was -0.44 z-score.

With “CCGATTAACATCAGGATTTTCTATGATGTTAATCGGGTCTTGATTCGCTTGACGCTGCTG”, the binding signal was 0.192 z-score.

For “CCGATTAACATCAGCGTTGGATGTGATGTTAATCGGGTCTTGATTCGCTTGACGCTGCTG”, the binding signal was -0.409 z-score.

Take “CCGATTAACATCAGCTCTGGAACTGATGTTAATCGGGTCTTGATTCGCTTGACGCTGCTG”: the binding signal was -0.609 z-score.

For the sequence “CCGATTAACATCATAAACTCTCTTGATGTTAATCGGGTCTTGATTCGCTTGACGCTGCTG”, the binding signal worked out at 0.197 z-score.

With “CCGATTAACATCAGACGCTATAATGATGTTAATCGGGTCTTGATTCGCTTGACGCTGCTG”, the binding signal is -0.38 z-score.

Take “CCGATTAACATCAGCGATTCCTTTGATGTTAATCGGGTCTTGATTCGCTTGACGCTGCTG”: the binding signal was -0.173 z-score.

As for “CCGATTAACATCACGGAATCTCCTGATGTTAATCGGGTCTTGATTCGCTTGACGCTGCTG”, the binding signal is 0.201 z-score.

Sequence “CCGATTAACATCAACCCTCGAACTGATGTTAATCGGGTCTTGATTCGCTTGACGCTGCTG” gave a binding signal of 0.378 z-score.

Turning to “CCGATTAACATCATCGACAGCAGTGATGTTAATCGGGTCTTGATTCGCTTGACGCTGCTG”, the binding signal was determined as 0.244 z-score.

Take “CCGATTAACATCAAAGTGGTCTTTGATGTTAATCGGGTCTTGATTCGCTTGACGCTGCTG”: the binding signal was -1.27 z-score.

“CCGATTAACATCATTTCTCCTATTGATGTTAATCGGGTCTTGATTCGCTTGACGCTGCTG” came in with a binding signal of 0.422 z-score.

The sequence “CCGATTAACATCAGGATTGCCCATGATGTTAATCGGGTCTTGATTCGCTTGACGCTGCTG” came in with a binding signal of 0.534 z-score.

In turn, “CCGATTAACATCAGTGCAGTCTATGATGTTAATCGGGTCTTGATTCGCTTGACGCTGCTG” yielded a binding signal of -0.333 z-score.

Turning to “CCGATTAACATCAGTTCCTAATATGATGTTAATCGGGTCTTGATTCGCTTGACGCTGCTG”, the binding signal was 0.508 z-score.

Sequence “CCGATTAACATCAAAGATTTGAATGATGTTAATCGGGTCTTGATTCGCTTGACGCTGCTG” yielded a binding signal of -1.26 z-score.

The sequence “CCGATTAACATCACTCTGGCTCTTGATGTTAATCGGGTCTTGATTCGCTTGACGCTGCTG” had a binding signal of -0.29 z-score.

“CCGATTAACATCAGTGCTGACCGTGATGTTAATCGGGTCTTGATTCGCTTGACGCTGCTG” displayed a binding signal of 0.223 z-score.

Turning to “CCGATTAACATCAGCTCTAACTGTGATGTTAATCGGGTCTTGATTCGCTTGACGCTGCTG”, the binding signal is -0.762 z-score.

With “CCGATTAACATCAAAGGGAATTCTGATGTTAATCGGGTCTTGATTCGCTTGACGCTGCTG”, the binding signal stood at 2.97 z-score.

In turn, “CCGATTAACATCACACTACATCGTGATGTTAATCGGGTCTTGATTCGCTTGACGCTGCTG” yielded a binding signal of -0.819 z-score.

Turning to “CCGATTAACATCAGCGCAAGATATGATGTTAATCGGGTCTTGATTCGCTTGACGCTGCTG”, the binding signal is -0.426 z-score.

Sequence “CCGATTAACATCACAACTCACATTGATGTTAATCGGGTCTTGATTCGCTTGACGCTGCTG” registered a binding signal of 0.296 z-score.

Take “CCGATTAACATCAGGGAATTCCCTGATGTTAATCGGGTCTTGATTCGCTTGACGCTGCTG”: the binding signal stood at 7.25 z-score.

“CCGATTAACATCAACTAAATTCCTGATGTTAATCGGGTCTTGATTCGCTTGACGCTGCTG” displayed a binding signal of -0.172 z-score.

“CCGATTAACATCAGTGATTAAGGTGATGTTAATCGGGTCTTGATTCGCTTGACGCTGCTG” registered a binding signal of 0.552 z-score.

As for “CCGATTAACATCAGGAAATCTCCTGATGTTAATCGGGTCTTGATTCGCTTGACGCTGCTG”, the binding signal is -1.1 z-score.

“CCGATTAACATCAGTGGAAAGTATGATGTTAATCGGGTCTTGATTCGCTTGACGCTGCTG” gave a binding signal of 0.544 z-score.

Regarding “CCGATTAACATCATTGTTATGCTTGATGTTAATCGGGTCTTGATTCGCTTGACGCTGCTG”, the binding signal was determined as 0.143 z-score.

Turning to “CCGATTAACATCACCAATTTTCCTGATGTTAATCGGGTCTTGATTCGCTTGACGCTGCTG”, the binding signal came to 0.602 z-score.

Take “CCGATTAACATCAGGCCGCCCGCTGATGTTAATCGGGTCTTGATTCGCTTGACGCTGCTG”: the binding signal is -0.428 z-score.
